Among all 270,000 compounds or so, about 620 (0.23%) were called active. This list was built around the results that the source calls inconclusive (neither active nor inactive); the mix of calls is not that of the screen. Calls come from the whole dose curve; as a rule, active = well fitted inhibition curve with a large enough effect in the polarisation, with a control signal flat (not every such curve was filed as active); inconclusive = small, poorly fitted or top-dose-only effect, or effect the other way, or a change in a side signal; inactive = no such curve, though single readings can be large or run the other way; the % refers to the polarisation. Potencies of inconclusive entries are doubtful fits and often do not repeat. “Side channel” marks fits to a control or component signal instead of the main read-out.
target: Menin (Homo sapiens) (UniProt O00255); test: qHTS Assay for Inhibitors Targeting the Menin-MLL Interaction in MLL Related Leukemias: Competition With Texas Red Labeled MLL-derived Mutant Peptide; settings: fluorescence polarization; series mostly up to 61.6 µM
Potency is the fitted concentration of half-maximal effect; tags give direction and shape of the fitted curve or compound fluorescence and quenching.

Sequence of UniProt O00255 (O00255 whole entry, looked up): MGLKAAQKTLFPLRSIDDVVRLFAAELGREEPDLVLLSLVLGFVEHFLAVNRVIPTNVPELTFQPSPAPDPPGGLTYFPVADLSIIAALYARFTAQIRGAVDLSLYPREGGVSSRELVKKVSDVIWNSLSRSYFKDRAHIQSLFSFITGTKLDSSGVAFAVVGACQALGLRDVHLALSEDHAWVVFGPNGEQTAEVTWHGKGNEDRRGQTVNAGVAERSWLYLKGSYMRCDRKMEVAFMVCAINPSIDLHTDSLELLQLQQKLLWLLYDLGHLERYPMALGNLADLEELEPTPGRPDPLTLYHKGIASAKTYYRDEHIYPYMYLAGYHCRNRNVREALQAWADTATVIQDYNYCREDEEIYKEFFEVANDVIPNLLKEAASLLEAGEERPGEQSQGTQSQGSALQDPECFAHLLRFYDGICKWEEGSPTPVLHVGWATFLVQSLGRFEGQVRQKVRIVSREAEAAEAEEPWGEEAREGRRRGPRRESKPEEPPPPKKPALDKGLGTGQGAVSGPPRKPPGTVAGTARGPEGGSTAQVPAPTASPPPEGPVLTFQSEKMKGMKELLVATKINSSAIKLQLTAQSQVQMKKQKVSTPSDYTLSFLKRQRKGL

SMILES | Potency
C=C(C)COc1ccc(-c2n[nH]c(C)c2-c2ccc(Br)cc2)c(O)c1 | inconclusive: 7.94 µM [quencher, side channel, full curve]
COc1ccc(/C=N/OCC(=O)N=Nc2c(O)[nH]c3ccc(Br)cc23)cc1 | inconclusive: 15.8 µM [quencher, side channel, partial curve]
O=C(Nc1nc2c(cc3c4c(cccc42)CC3)s1)c1ccccc1Cl | inconclusive: 39.8 µM [inhibitor, single point]
Cc1cc(Cl)c(OCCn2ccnc2)c(Br)c1 | inconclusive: 12.6 µM [inhibitor, partial curve]
O=C(C/C=N/OCc1ccc(F)cc1Cl)c1cnc(-c2ccccc2)s1 | inconclusive: 0.708 µM [quencher, side channel, full curve, poor fit]
N#CCC(=O)N/N=C\c1ccc(OC/C=C/c2ccccc2)cc1 | inconclusive: 31.6 µM [quencher, side channel, single point]
Oc1ccc(Nc2nc(-c3ccc4ccccc4c3)cs2)cc1 | inconclusive: 3.16 µM [quencher, side channel, full curve]
O=C(O)CC[C@@H](C(=O)O)N1C(=O)c2ccccc2C1=O | inactive
CN(C)c1ccc(/C=N/N(CCC(=O)NC(C)(C)C)C2=NS(=O)(=O)c3ccccc32)cc1 | inconclusive: 3.16 µM [inhibitor, partial curve]
CCN(CC)CCCN(C(=O)c1cccc(C)c1)c1nc(-c2ccc(OC)cc2)cs1 | inconclusive: 0.708 µM [inhibitor, full curve, poor fit]
Clc1cccc(-c2ccc(CNCc3ccccn3)o2)c1 | inconclusive: 3.98 µM [inhibitor, partial curve]
CN1C(=O)C(C)(C)c2cc(S(=O)(=O)N3CCCCCC3)ccc21 | inconclusive: 6.31 µM [quencher, side channel, single point]
CCc1cc2c(C)cc(=O)oc2cc1OC(=O)C1CCCN1C(=O)OC(C)(C)C (configuration not stated) | inconclusive: 20 µM [inhibitor, partial curve]
Cc1ccc(N2CCN(C(=O)Nc3cccc([N+](=O)[O-])c3)CC2C)cc1 (configuration not stated) | inconclusive: 39.8 µM [quencher, side channel, single point]
CCCCCCCCCCOC(=O)Cn1c(COc2ccccc2OC)[n+](C)c2ccccc21 | inconclusive: 1.78 µM [fluorescent, side channel, full curve]
CCCn1nc([N+](=O)[O-])c(C(C#N)c2nc3ccccc3o2)c(Cl)c1=O (configuration not stated) | inconclusive: 31.6 µM [quencher, side channel, partial curve]
Cc1cc2n(n1)C(c1ccccc1)Nc1ccccc1-2 (configuration not stated) | inactive
CCOC(=O)N1CCN(CC(O)COC2CC(C)CC(C)(C)C2)CC1 (configuration not stated) | inconclusive: 3.55 µM [fluorescent, side channel, full curve]
CCCCOC(=O)c1c(C)oc2ccc(NS(=O)(=O)c3ccc4c5c(cccc35)C(=O)N4)cc12 | inconclusive: 25.1 µM [quencher, side channel, single point]

SMILES | Potency
CCC(C)(C)C(=O)Nc1cc([N+](=O)[O-])ccc1F | inactive
Cc1ccc(-c2cc(-c3ccccc3)[nH]c(=S)c2C#N)cc1 | inconclusive: 25.1 µM [quencher, side channel, single point]
CCOc1ccc(-c2nc(C#N)c(NCC3CCCO3)o2)cc1 (configuration not stated) | inactive
N#Cc1ccc(NC(=O)Nc2cccc(C#N)c2)cc1 | inconclusive: 31.6 µM [quencher, side channel, single point]
COc1ccc(-c2nnc3ccc(SCc4ccccc4)nn23)cc1 | inconclusive: 3.16 µM [fluorescent, side channel, partial curve]
O=C(Nc1ccc2c(c1)OCO2)C1Cc2ccccc2CN1S(=O)(=O)c1cccs1 (configuration not stated) | inconclusive: 17.8 µM [quencher, side channel, partial curve]
COc1ccc(NC(=O)Cn2nnc(C(=O)NCCc3ccccc3)c2N)c(OC)c1 | inconclusive: 39.8 µM [fluorescent, side channel, single point]
CCOC(=O)CC(=O)CSc1nc(N)c(C#N)c(-c2ccc(F)cc2)c1C#N | inconclusive: 14.1 µM [quencher, side channel, partial curve]
CC(=O)c1c(N2CCOCC2)[nH]c(-c2ccccc2)nc1=S | inconclusive: 44.7 µM [inhibitor, partial curve]
On1c(-c2ccc(Cl)cc2)nc2ccccc21 | inconclusive: 22.4 µM [quencher, side channel, partial curve]
Cn1c(Sc2ccc(C(F)(F)F)cc2[N+](=O)[O-])nnc1-c1ccccc1 | inconclusive: 39.8 µM [inhibitor, single point]
COc1ccc(CNCC2COc3ccccc3O2)cc1 (configuration not stated) | inconclusive: 39.8 µM [inhibitor, single point]
CC(=O)Oc1ccc(/C=N/NC(=O)c2ccc(N(C)S(=O)(=O)c3ccccc3)cc2)cc1 | inconclusive: 31.6 µM [quencher, side channel, partial curve]
O=C(CCc1nnc(C2(c3ccc(Cl)cc3)CCC2)o1)N1CCCC(O)C1 (configuration not stated) | inconclusive: 39.8 µM [quencher, side channel, single point]
O=C(NCc1ccccn1)c1ccc(OC2CCN(Cc3ccc(F)cc3F)CC2)cc1 | inconclusive: 31.6 µM [inhibitor, partial curve]
COc1cc(/C=N/NC(=O)c2ccc3ccccc3c2)ccc1Oc1ccc([N+](=O)[O-])cn1 | inconclusive: 22.4 µM [quencher, side channel, partial curve]
CCC1=NN2C(=N)/C(=C\c3ccc(OCCOc4ccccc4)c(OC)c3)C(=O)N=C2S1 | inconclusive: 31.6 µM [inhibitor, single point]
COc1ccc(CCNC(=O)CSc2nnc(-c3cccc(C)c3)o2)cc1OC | inconclusive: 20 µM [inhibitor, single point]
